Measurements from patent CN114395046A (UNIV NINGXIA MEDICAL; UNIV GUANGDONG MEDICAL, dated 2022).

Molecular target: T1, PD-1抗原 (PD-1 protein) (UniProt Q15116 fragment, limits assumed)
T1 construct: The construct is unknown; also called PD-1蛋白
Assay: SPR (Biacore 8K); recombinant nanobody injected as analyte, 100 nM to 0.391 nM in 2-fold dilutions, over PD-1 protein

T1 sequence (Q15116 25-167 limits assumed): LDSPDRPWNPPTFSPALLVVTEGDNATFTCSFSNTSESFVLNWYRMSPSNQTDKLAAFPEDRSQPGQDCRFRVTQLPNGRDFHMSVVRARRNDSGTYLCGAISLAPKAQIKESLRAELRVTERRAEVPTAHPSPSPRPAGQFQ

B1: 抗PD-1的重组纳米抗体 (anti-PD-1 nanobody SEQ ID No.1 + GGGGS linker + human IgG Fc) (Fc fusion)
chain: QVQLQELGETRCRHGGSLRLSCKVSGYTQRSYCLGWLRQAPGNEREAVAVLQHSGNFRHYADSVQGRFVISQDYTDNTVYLAMNNLKSEDAAMYYCAAALGTCVGLRVSQFNYWGQGTQVTVSSGGGGS[human IgG1 Fc with changes left out]
notes: It was expressed in E. coli Arctic Express from pCZN1 and purified from inclusion bodies on a Ni column; also called 重组抗体; 融合蛋白
B1 was tested, and the Kd was 3.88 nM.
